Laboratory results as given in PubChem BioAssay (NCATS).
Inconclusive means that the source gave no clear call. Such entries were picked first, then a sample of the others. For some assays here: No potency is given beside an inconclusive call; the fits are too rough. The source made the active and inactive calls. Calls follow the shape of the dose curve; as a rule, active = well fitted curve in the direction sought with a large enough effect; inconclusive = small, poorly fitted or top-dose-only effect, or another doubt; inactive = no such curve, though single readings can be large; an effect the other way counts as inactive or inconclusive.

Columns and labels:
[1] = Cytometry Cell-Based qHTS for Inhibitors of the mTORC1 Signaling Pathway in MEF cells (AID 2668)
Outline: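 MEFs (Tsc2-/-, p53-/- stably expressing WT Tsc2) treated 24 h at 37 degree Celsius, fixed, stained with Alexa-488 anti-phospho-rpS6 Ser235/236 and propidium iodide; Acumen laser scanning. Reported as % positive cells, phospho-S6 normalized to PI.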

[2] = target: ATP-dependent 6-phosphofructokinase (Trypanosoma brucei brucei) (UniProt O15648); test: qHTS Validation Assay to Find Inhibitors of T. brucei phosphofructokinase (AID 485368)
Outline: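 Luminescent ADP detection measures PFK turnover of fructose-6-phosphate (0.5 mM) with ATP (0.1 mM) at pH 8.0. Reaction runs 45 min at room temperature with 1.25 nM enzyme; inhibitors tested as titrations up to 57 uM.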

[3] = Validation screen for small molecules that induce DNA re-replication in MCF 10A normal breast cells (AID 463097); also: nearly all actives have a fitted effect of over 60% in size
Outline: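 MCF 10A cells exposed to compound 48 hr at 37 C, 5% CO2, then Hoechst-stained 40 min. Laser-scanning imaging of nuclear DNA content (405 nm ex, 500-530 nm em); re-replication scored as rise in nuclei with elevated fluorescence intensity.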

[4] = Quantitative high throughput screen for delayed death inhibitors of the malarial parasite plastid, 48 hour incubation (AID 488752); also: nearly all actives have a fitted effect of over 65% in size
Outline: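 One-generation (48 h) growth assay: a decrease in luciferase signal from an integrated reporter in P. falciparum-infected red cells (0.1% parasitemia, 2% hematocrit) after compound exposure at 37 C indicates parasite inhibition.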

[5] = target: Thioredoxin reductase 1, cytoplasmic (Rattus norvegicus) (UniProt O89049); test: qHTS Assay for Inhibitors of Mammalian Selenoprotein Thioredoxin Reductase 1 (TrxR1) (AID 488773); settings: Potency: inhibition; also: nearly all actives have a fitted effect of over 40% in size
Outline: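 Inhibition is scored from the loss of NADPH fluorescence between first and last reads of an 8-min kinetic run. Selenite (400 uM) was the substrate, added after 15 min compound preincubation at room temperature.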

[6] = Quantitative high throughput screen for delayed death inhibitors of the malarial parasite plastid, 96 hour incubation (AID 488745); also: nearly all actives have a fitted effect of over 70% in size
Outline: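 Decreased firefly luciferase luminescence indicates inhibited growth of reporter-integrated P. falciparum after two generations (96 h, 37 C, 5% CO2). Infected erythrocytes at 0.1% parasitemia, 2% hematocrit, in Albumax-supplemented RPMI 1640.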

[7] = target: Ubiquitin carboxyl-terminal hydrolase 2 (Homo sapiens) (UniProt O75604); test: qHTS Validation Assay for Inhibitors of Ubiquitin-specific Protease USP2a Using CHOP2 as the Reporter (AID 463106)
Outline: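 Fluorescence read-out at Ex 485nm/Em 531nm after 60min RT, following addition of 25nM Ub-CHOP2 plus 25nM reporter substrate to USP2 core (10nM) pretreated 30min with compound. Data normalized to NEM full inhibition; concentration-response curves fitted.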

[8] = target: DNA polymerase III PolC-type (Bacillus subtilis (strain 168)) (UniProt P13267); test: qHTS Validation Assay for the Inhibitors of DNA Replication in Gram-Positive Bacteria (AID 485295)
Outline: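 Reconstituted B. subtilis Pol III holoenzyme (PolC, beta clamp, SSB, primase) preincubated with compound, then M13Gori single-stranded circular template with dNTPs/NTPs added; room temperature reaction. Stopped with EDTA/PicoGreen; dsDNA fluorescence read, EDTA as full-inhibition control.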
Potency is read from the fitted curve at half-maximal effect; tags tell the direction and shape of the fitted curve or compound fluorescence and quenching.

Chain of UniProt O89049 (O89049 whole entry, looked up): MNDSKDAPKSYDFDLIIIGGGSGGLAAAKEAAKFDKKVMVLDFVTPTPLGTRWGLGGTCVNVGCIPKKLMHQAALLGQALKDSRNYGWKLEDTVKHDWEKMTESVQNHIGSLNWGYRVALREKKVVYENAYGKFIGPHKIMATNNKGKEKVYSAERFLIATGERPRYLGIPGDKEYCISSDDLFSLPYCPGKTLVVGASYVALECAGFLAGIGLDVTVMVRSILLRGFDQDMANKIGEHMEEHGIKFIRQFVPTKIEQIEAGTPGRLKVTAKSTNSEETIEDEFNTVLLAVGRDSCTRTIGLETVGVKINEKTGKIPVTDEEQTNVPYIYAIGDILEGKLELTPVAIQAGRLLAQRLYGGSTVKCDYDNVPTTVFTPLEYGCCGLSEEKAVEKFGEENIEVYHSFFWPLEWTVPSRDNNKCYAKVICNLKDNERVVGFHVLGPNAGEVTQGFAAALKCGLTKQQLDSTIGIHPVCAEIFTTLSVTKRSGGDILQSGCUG
Chain of UniProt O15648 (O15648 whole entry, looked up): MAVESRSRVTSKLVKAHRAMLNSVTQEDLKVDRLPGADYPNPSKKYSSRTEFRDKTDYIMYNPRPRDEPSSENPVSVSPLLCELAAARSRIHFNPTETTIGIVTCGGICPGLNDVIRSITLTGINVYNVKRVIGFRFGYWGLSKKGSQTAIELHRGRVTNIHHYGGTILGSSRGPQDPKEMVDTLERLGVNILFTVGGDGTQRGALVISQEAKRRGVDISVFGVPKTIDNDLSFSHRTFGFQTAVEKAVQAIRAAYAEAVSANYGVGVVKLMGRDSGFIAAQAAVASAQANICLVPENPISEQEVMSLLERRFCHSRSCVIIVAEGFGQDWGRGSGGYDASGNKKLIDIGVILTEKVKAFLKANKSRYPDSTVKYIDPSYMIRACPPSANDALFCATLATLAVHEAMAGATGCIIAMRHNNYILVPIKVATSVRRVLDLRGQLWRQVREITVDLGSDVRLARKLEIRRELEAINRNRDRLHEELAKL
Chain of UniProt O75604 (O75604 whole entry, looked up): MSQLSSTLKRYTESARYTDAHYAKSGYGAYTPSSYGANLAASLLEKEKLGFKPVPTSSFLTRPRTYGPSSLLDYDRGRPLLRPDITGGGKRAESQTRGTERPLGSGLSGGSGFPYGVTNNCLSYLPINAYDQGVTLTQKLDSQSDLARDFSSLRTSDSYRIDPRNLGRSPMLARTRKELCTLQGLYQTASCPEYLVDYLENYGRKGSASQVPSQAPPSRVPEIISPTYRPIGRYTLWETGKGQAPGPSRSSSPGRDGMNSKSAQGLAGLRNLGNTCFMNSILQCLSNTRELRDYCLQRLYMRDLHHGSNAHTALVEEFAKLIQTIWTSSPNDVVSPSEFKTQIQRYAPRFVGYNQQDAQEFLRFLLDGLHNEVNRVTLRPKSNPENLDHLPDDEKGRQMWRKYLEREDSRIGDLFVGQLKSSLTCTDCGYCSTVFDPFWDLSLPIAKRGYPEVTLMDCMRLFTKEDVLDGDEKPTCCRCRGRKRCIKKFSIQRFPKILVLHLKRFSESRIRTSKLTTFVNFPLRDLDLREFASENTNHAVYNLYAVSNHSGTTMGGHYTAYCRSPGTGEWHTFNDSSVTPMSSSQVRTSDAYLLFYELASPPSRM
Chain of UniProt P13267 (P13267 whole entry, looked up): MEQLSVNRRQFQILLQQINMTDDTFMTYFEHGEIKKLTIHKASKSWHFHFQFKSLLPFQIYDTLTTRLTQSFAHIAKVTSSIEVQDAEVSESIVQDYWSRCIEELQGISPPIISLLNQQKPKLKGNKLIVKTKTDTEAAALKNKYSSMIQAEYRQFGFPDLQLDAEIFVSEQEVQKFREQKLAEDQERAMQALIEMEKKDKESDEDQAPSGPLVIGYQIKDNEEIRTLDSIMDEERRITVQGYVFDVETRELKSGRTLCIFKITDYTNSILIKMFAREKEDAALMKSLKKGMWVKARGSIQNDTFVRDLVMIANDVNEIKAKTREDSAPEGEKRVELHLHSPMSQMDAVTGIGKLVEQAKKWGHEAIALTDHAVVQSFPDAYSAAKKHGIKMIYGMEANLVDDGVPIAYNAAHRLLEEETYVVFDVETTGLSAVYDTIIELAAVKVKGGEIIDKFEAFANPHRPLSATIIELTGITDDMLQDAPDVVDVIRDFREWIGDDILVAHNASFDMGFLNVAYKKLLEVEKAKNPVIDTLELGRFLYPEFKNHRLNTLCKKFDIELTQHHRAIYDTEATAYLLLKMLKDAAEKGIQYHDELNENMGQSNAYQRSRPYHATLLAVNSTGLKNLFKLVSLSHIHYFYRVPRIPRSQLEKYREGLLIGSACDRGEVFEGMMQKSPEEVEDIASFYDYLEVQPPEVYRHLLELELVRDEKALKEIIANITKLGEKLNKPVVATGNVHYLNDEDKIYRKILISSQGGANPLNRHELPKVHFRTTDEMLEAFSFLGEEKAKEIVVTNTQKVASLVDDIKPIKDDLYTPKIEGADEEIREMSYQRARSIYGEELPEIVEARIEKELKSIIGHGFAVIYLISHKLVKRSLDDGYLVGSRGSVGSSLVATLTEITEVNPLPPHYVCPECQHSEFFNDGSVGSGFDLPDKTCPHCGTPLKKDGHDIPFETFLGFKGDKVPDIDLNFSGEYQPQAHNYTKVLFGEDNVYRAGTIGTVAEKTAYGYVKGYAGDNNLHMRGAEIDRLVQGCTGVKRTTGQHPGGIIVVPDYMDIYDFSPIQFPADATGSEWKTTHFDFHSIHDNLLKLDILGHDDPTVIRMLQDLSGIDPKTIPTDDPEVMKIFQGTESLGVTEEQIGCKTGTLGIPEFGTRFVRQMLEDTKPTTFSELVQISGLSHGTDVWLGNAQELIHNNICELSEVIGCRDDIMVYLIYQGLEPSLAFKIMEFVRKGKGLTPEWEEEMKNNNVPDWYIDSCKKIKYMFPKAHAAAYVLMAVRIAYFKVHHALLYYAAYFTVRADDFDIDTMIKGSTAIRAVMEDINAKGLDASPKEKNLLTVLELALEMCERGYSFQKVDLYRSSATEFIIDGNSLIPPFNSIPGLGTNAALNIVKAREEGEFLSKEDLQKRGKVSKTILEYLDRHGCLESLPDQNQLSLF

## c1ccc(C(NCCNC(c2ccccc2)c2ccccc2)c2ccccc2)cc1
[1]
  Potency: active: 18.5 µM

## CC1(C)NC(=O)N(c2ccc([N+](=O)[O-])c(C(F)(F)F)c2)C1=O
[2]
  Potency: inactive

## CC(C)(C)c1ccc(S(=O)(=O)/C=C/C#N)cc1
[3]
  Potency: active: 1.12 µM
[2]
  Potency: inconclusive [falling, single point]
[4]
  Potency: inconclusive [inhibitor, single point]
[5]
  Potency: active: 0.377 µM

## CCCNC(C)C(=O)Nc1ccccc1C (stereo not drawn)
[3]
  Potency: inactive
[4]
  Potency: inconclusive [inhibitor, single point]

## C[C@](N)(Cc1ccc(O)cc1)C(=O)O
[3]
  Potency: inactive
[2]
  Potency: inactive
[6]
  Potency: inconclusive [activator, partial curve, poor fit]
[4]
  Potency: inactive

## COc1ccc2cc([C@H](C)C(=O)O)ccc2c1
[3]
  Potency: inactive
[2]
  Potency: inconclusive [activator, single point]
[4]
  Potency: inactive
[5]
  Potency: inactive

## C=Cc1c(C)c2cc3[nH]c(cc4nc(cc5nc(cc1[nH]2)C(C)=C5CCC(=O)O)C(CCC(=O)O)=C4C)c(C)c3C=C
[7]
  Potency: inconclusive [falling, single point]
[2]
  Potency: active: 19 µM
[5]
  Potency: active: 13.4 µM

## O=C(Nc1cccc(C(=O)Nc2ccc(S(=O)(=O)O)c3cc(S(=O)(=O)O)cc(S(=O)(=O)O)c23)c1)Nc1cccc(C(=O)Nc2ccc(S(=O)(=O)O)c3cc(S(=O)(=O)O)cc(S(=O)(=O)O)c23)c1
[7]
  Potency: active: 8.26 µM
[8]
  Potency: active: 11.9 µM
[2]
  Potency: active: 0.0379 µM
[5]
  Potency: inconclusive [inhibitor, single point]
